About 2,200 (0.71%) of roughly 310,000 compounds showed an effect of 50% or more. Effects have a minus sign here. Some of the results follow.
What follows are compounds tested against human ether-à-go-go-related gene (hERG) potassium channel (human, UniProt Q12809) (assay: primary screen, population patch clamp on CHO cells stably expressing hERG).
Chain of human ether-à-go-go-related gene (hERG) potassium channel (Q12809 whole entry, looked up): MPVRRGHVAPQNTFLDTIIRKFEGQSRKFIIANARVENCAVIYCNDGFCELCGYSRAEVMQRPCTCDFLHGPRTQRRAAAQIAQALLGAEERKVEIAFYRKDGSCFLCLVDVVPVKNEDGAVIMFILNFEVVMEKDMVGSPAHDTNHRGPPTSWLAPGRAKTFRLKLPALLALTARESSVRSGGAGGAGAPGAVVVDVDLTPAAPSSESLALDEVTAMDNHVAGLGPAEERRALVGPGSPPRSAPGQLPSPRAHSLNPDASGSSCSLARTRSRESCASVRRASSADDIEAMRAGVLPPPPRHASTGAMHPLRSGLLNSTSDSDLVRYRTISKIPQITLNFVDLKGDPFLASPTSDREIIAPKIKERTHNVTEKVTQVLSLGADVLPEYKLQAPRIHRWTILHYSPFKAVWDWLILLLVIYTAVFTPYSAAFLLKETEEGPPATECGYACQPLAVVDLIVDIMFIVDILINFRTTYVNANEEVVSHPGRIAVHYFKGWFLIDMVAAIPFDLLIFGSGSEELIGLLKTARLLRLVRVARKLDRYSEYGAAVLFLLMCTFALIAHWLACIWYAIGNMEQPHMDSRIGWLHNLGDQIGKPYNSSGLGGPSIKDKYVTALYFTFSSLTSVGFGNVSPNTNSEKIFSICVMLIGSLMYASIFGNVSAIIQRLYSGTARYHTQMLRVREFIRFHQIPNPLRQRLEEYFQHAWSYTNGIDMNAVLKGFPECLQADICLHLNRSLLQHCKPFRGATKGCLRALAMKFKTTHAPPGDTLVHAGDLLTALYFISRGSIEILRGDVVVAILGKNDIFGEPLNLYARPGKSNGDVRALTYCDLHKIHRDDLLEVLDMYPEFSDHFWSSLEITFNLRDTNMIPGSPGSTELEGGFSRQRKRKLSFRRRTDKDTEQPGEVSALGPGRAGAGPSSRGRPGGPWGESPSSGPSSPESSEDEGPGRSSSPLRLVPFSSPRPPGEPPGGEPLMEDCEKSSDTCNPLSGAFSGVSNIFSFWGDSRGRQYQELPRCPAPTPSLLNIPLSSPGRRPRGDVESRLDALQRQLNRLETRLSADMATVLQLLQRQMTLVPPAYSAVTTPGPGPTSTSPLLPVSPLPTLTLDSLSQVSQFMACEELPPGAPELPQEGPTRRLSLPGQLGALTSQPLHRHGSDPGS

Compound	hERG current change (%, negative = inhibition) at 1uM
CC(Oc1ccc2c(-c3ccccc3)cc(=O)oc2c1)C(=O)NCC1CCC(C(=O)O)CC1 (stereo not shown)	10.9%
CCCCNC1=NCCS1	3.41%
CC1=C(C(=O)N2CCC3(CC2)OCCO3)C2(CCC(C)CC2)OC1=O (stereo not shown)	4.83%
CCSCCNC(=O)c1cncc(Br)c1	9.46%
COc1ccc(/C=C2\SC(N3CCc4ccccc4C3)=NC2=O)cc1	8.49%
CCN(c1ccccc1)S(=O)(=O)c1ccc(Cl)c(NC(=O)CN2CCCCCC2)c1.O=C(O)C(=O)O	11.2%
CN1CC(=O)N/C1=N\C(=O)Nc1ccc(O)cc1	16.6%
COc1cc(C(=S)N2CCCC2)ccc1OCC(N)=O	17.2%
COC(=O)NC1c2ccccc2Oc2ccc(C)cc21 (stereo not shown)	10.1%
O=C1CCCC2=C1C(c1ccc(O)c(O)c1)Nc1ccc3ccccc3c12 (stereo not shown)	13.4%
CC1=C(C(=O)Nc2ccccc2)C2(CCCCC2)C(C#N)=C(SCC(N)=O)N1	11.7%
Cc1cc(C(F)F)n2ncc(C(=O)N3CCCCC3)c2n1	13.9%
Cc1noc(C)c1COc1ccc(C(=O)Nc2ccccn2)cc1	7.52%
COc1ccc(CNC(=O)Cc2cccs2)cc1OC	9.49%
CCOC(=O)c1c(NC(=O)CSC2=NN3CCCC(=O)N=C3S2)sc2c1CCCCC2	12.7%
Cc1c(C(=O)N(Cc2ccccc2)C(C)C)cnn1-c1ccccc1	3.33%
COc1ccc(S(=O)(=O)NCC2CCCN(C(=O)c3ccccc3)C2)cc1 (stereo not shown)	18%
COc1ccc(NC(=S)NC(=O)c2ccccc2Cl)cc1	0.375%
O=C(Nc1cccnc1)c1ccccc1F	10.7%
COc1ccccc1/C=C/C(=O)Nc1ccc2c(c1)OCCO2	11.2%
COc1ccc(C(=O)COC(=O)c2sc(C)nc2C)cc1OC	12.7%
CN1C(=O)C2(C(C#N)=C(N)Oc3n[nH]c(-c4ccc(Cl)cc4)c32)c2ccccc21 (stereo not shown)	13.5%
CCn1c(CS(=O)Cc2ccc(Cl)cc2Cl)nnc1SCc1c(Cl)cccc1Cl (stereo not shown)	3.44%

Compound	hERG current change (%, negative = inhibition) at 1uM
Cc1c(C(=O)NNc2cc(=O)n(C)c(=O)n2C)cccc1[N+](=O)[O-]	14.4%
CCOC(=O)N/N=C/c1cc(OC)c(O)c(OC)c1	21%
CCOC(=O)c1cc2sccc2n1CC(=O)Nc1ccc(OC)c(OC)c1	9.3%
CN(C)/C=N/C(=S)Nc1ccc(Cl)cc1Cl	10.1%
CN(C)c1ccc(NC(=O)C[n+]2ccccc2)cc1.[Cl-]	16.1%
Cc1ccccc1CN1CCC(n2nccc2NC(=O)c2cccnc2)CC1	4.68%
CCN(CC)c1ccc(C(=O)OCC(=O)Nc2cc(C)on2)cc1	8.47%
Cc1ccc(S(=O)(=O)NCC(c2ccccc2)N2CCCCC2)cc1 (stereo not shown)	7.82%
CN1/C(=C\C(=O)c2cccs2)Sc2ccccc21	13.8%
COCCCN(C(=S)NC(=O)C12CC3CC(CC(C3)C1)C2)c1c(N)n(Cc2ccccc2)c(=O)[nH]c1=O	13.8%
COc1c(C)cc(C(=O)C2CCCN(C(=O)Cn3nc(C)nc3C)C2)cc1C (stereo not shown)	8.01%
Cc1sc(NC(=O)C2CCCC2)c(C#N)c1C	17.8%
Cn1cc(C(=O)NCc2ccc(F)cc2)c(=O)c2cc(S(=O)(=O)N3CCCCC3)ccc21	3.42%
CCCc1c(O)nc(SC2CC(=O)N(c3cc(OC)ccc3OC)C2=O)[nH]c1=O (stereo not shown)	3.88%
COc1cc(CNC23CC4CC(CC(C4)C2)C3)ccc1OCc1ccccc1.Cl	1.77%
CC(=O)Oc1ccc(N2C(=O)C3C(C2=O)C2(C)C=CC3(C)O2)cc1 (stereo not shown)	0.436%
COc1ccccc1/C=C1\SC(=O)N(CC(=O)N(C)C2CCS(=O)(=O)C2)C1=O (stereo not shown)	28.8%
CC(/C=N/n1c(-c2ccco2)n[nH]c1=S)=C\c1ccco1	13.9%
CC1c2[nH]c3ccccc3c2CCN1C(=O)Nc1ccccc1 (stereo not shown)	-2.19%
Cc1cccc(NC(=O)Cn2cnc3c(oc4ccccc43)c2=O)c1	10.5%
CCOc1ccccc1NC(=O)c1nnn(CC(=O)Nc2ccc3c(c2)OCO3)c1N	11.6%
COc1ccccc1S(=O)(=O)Cc1ccc(C(=O)NCc2ccco2)o1	-0.9%
Cc1cccnc1NC(=O)c1ccc2c(c1)NC(=O)C(C)S2 (stereo not shown)	-6.53%

Compound	hERG current change (%, negative = inhibition) at 1uM
COC(=O)c1cc(C(=O)N(Cc2ccccc2)c2ccccn2)cc([N+](=O)[O-])c1	-10.1%
CC(C)OCCCNc1nc2c([nH]1)c(=O)n(C)c(=O)n2C	6%
Cc1ccccc1NS(=O)(=O)c1ccc(C2CNC(=O)C2)cc1 (stereo not shown)	10.3%
Cc1ccccc1NC(c1cccc(Cl)c1)c1nnnn1C1CCCCC1 (stereo not shown)	10%
CC1=C(C(=O)NCc2ccco2)C2(CCC(C)CC2)OC1=O (stereo not shown)	15.6%
CC(=O)c1ccc(NC(=O)c2cc(S(=O)(=O)N3CCOCC3)ccc2C)cc1	12.6%
COCCN(C(=O)Cn1nnc2ccccc21)C(C(=O)NC1CCCCC1)c1ccc(OC)cc1OC (stereo not shown)	9.29%
CC1=NN(C(=O)c2ccc(Cn3cc([N+](=O)[O-])cn3)cc2)C(O)(C(F)(F)F)C1 (stereo not shown)	-1.45%
Cc1ccc2ccccc2c1Cn1c(-n2ccnc2)nc2c1c(=O)n(C)c(=O)n2C	8.35%
O=S(=O)(Nc1ccc(O)c2ccccc12)c1ccc(Br)cc1	8.2%
CC1=C(C(=O)Nc2ccccc2C(=O)NC2CCC(C)CC2)SCCO1 (stereo not shown)	14.6%
O=C(CNC(=O)c1cc2c(n(-c3ccccc3)c1=O)CCCC2=O)c1ccccc1	10.9%
Cc1ccc(CNC(=O)CCCN2C(=S)NC(C)(C)CC2C)cc1 (stereo not shown)	4.11%
CCO/C([O-])=N/c1sn[n+](C)c1C	7.98%
Cc1c(O)c(CN2CCCCC2)cc2c3c(c(=O)oc12)CCC3	4.76%
O=C(O)c1ccccc1-c1nc2ccccc2c(=O)[nH]1	4.68%
CN(CC(=O)Nc1cccc(F)c1)C(=O)Cc1n[nH]c(=O)c2ccccc12	14.1%
CC[C@H](CO)NCCN[C@H](CC)CO.Cl	15.6%
COc1cc(OC)cc(C(=O)NCCCN2CCOCC2)c1	9.25%
CC(C)(C)NC(=O)Cn1nnc(-c2ccccc2NC(=O)c2ccco2)n1	8.52%
Cc1c(C)n(C(=O)CSc2nccn2C)c2ccccc12	0.119%
Cc1ccc(NC(=O)COC(=O)CN2C(=O)NC3(CCCC3)C2=O)cc1F	13.6%
C=CCSc1nnc2c(n1)OC(c1ccco1)Nc1ccccc1-2 (stereo not shown)	10.6%

Compound	hERG current change (%, negative = inhibition) at 1uM
Cc1cc(C)cc(NC(=S)N2CCN(c3ccc(F)cc3)CC2)c1	-0.227%
COc1cc(CN2CCC(N3CCC(C(=O)N4CCCC4)CC3)CC2)cc2c1OCO2	-1.93%
Cc1ccc(-c2nc(N=Nc3ccc(O)cc3)n[nH]2)cc1	10.3%
CCC(=O)N1CCN(c2nc(C)nc3sc(C)c(C)c23)CC1	-54%
COc1ccccc1OCCNC(=O)C(CCSC)NS(=O)(=O)c1ccccc1F (stereo not shown)	-3.2%
COCCNC(=O)C(c1ccccc1C)N(CCOC)C(=O)Cn1nnc2ccccc21 (stereo not shown)	5.21%
O=C(Nc1ccc(N2CCCC2)c(Cl)c1)c1cccs1	20.5%
COc1cc(NC(=O)c2cccs2)c(C(=O)OCC(=O)c2cc(C)n(-c3ccc(F)cc3)c2C)cc1OC	10.1%
COc1ccc(NC(=O)/C(C#N)=C/C=C/c2ccco2)cc1	10.9%
c1ccc(-n2c(SCc3nc(-c4cccs4)no3)nnc2-c2ccco2)cc1	6.91%
O=C(NCc1cccnc1)Nc1ccc(Br)cc1	6.55%
O=C(Nc1ccc2c(c1)C(=O)OC2)c1ccccc1Cl	15.4%
CNC(=S)NCCc1c[nH]c2ccc(OC)cc12	10.1%
COc1ccc2oc(=O)c(C(=O)OCC(=O)c3ccc([N+](=O)[O-])cc3)cc2c1	13.8%
COc1ccc(CN2C3CCC2CC(NC(=O)c2cccc(F)c2)C3)cc1 (stereo not shown)	-81.1%
COc1cc(C(=O)NCC2CCCN2S(=O)(=O)c2cccs2)cc(OC)c1OC (stereo not shown)	9.66%
CSC1=NCCN1C(=O)c1ccco1	17.8%
O=c1c2c3c(sc2n2cnnc2n1-c1ccccc1)N(Cc1ccccc1)CCC3	11.4%
CC1CCCC(=C\c2ccccc2)/C1=N/O (stereo not shown)	8.23%
COc1ccc(NC(=O)C2OC3OC(C)(C)OC3C3OC(C)(C)OC23)cc1 (stereo not shown)	0.824%
Cc1[nH]c2ccccc2c1/C=N/Nc1ccc(F)cc1F	9.46%
COCCCNC(=O)CC1C(=O)N(Cc2ccccc2)C(C)c2nc3ccccc3n21 (stereo not shown)	9.07%

— publication PMC4336329 (PLoS ONE, 2015)
